Variants at the background level are over-represented here.

Experimental findings from the RNAGym collection of RNA variant scans (doi:10.1073/pnas.2313332121) are described below.

Sequences and labels used below:
B1: TPR 5TU (parent)
chain: GGAUCUUCUCGAUCUAACAAAAAAGACAAAUCUGCCACAAAGCUUGAGAGCAUCUUCGGAUGCAGAGGCGGCAGCCUUCGGUGGCGCGAUAGCGCCAACGUUCUCAACUAUGACACGCAAAACGCGUGCUCCGUUGAAUGGAGUUUAUCAUG

In this data set the parent is B1. The data set can be described thus: polymerase ribozyme fitness, log enrichment relative to wild type (log ratio); higher = more active; in vitro selection for triplet polymerase activity. In short, it runs like this: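 Libraries of mutants in each subunit of a heterodimeric triplet polymerase ribozyme were generated by PCR and transcribed. In triplicate, each went through one in vitro selection round: annealing with biotinylated primer, partner subunit and triplets; frozen incubation at −7 °C; gel excision of extended constructs; streptavidin-bead capture; RT-PCR. Fitness, taken from Illumina sequencing of input and output libraries, is the logarithm of a genotype's enrichment over wild-type enrichment, averaged across replicates with inverse-variance weights. The logarithm is base 2, and genotypes needed ≥10 input reads and ≥1 read per output to be kept.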
Take C8G A52C A73U G83A: the “polymerase ribozyme fitness (log ratio)” value was at most -4.2. With U6G C8G G34A C93U U127C, the “polymerase ribozyme fitness (log ratio)” value was at most -4.2. On to U7C A16U C36U G58C C87G A106C G117U C118A G143U, for which the “polymerase ribozyme fitness (log ratio)” value was at most -4.2. Regarding U7C C18A U55G G62C C75G A137U, the “polymerase ribozyme fitness (log ratio)” value is at most -4.2. Regarding C8A G46U C96U U146G, the “polymerase ribozyme fitness (log ratio)” value was at most -4.2. Regarding C8A A37U, the “polymerase ribozyme fitness (log ratio)” value is at most -4.2. On to U6C A40G A52G C57A U78G C93A U148G, for which the “polymerase ribozyme fitness (log ratio)” value is at most -4.2. Regarding U6A C18U C75U A91U C95U C108U, the “polymerase ribozyme fitness (log ratio)” value is at most -4.2. Next, C5U U15G C27U A47U G48C U55A C76A G84A A122G: at most -4.2; C8G A52U C85U C95G G124U U135A: at most -4.2; C8G C35G C75U C87U C99U C123U: at most -4.2. The figure for C8G G48C G83A G88C is at most -4.2; for U7G A12U A17G A21C C76U C79U U82G C103G U127G it is at most -4.2; for U7A C27A A64C G88C A106C it is at most -4.2. Turning to U6G G50C U56A C75U U82C C108G, the “polymerase ribozyme fitness (log ratio)” value is at most -4.2.

Turning to U6G G25U A28U C69A G83A C85U G92C G124U, the “polymerase ribozyme fitness (log ratio)” value was at most -4.2. The figure for U7A A52C C54U G74U G88U is at most -4.2; for U6G G50U G84A G92A A113U A137G U146A it is at most -4.2. Turning to U7C U9A A52C C87A G92C G141A, the “polymerase ribozyme fitness (log ratio)” value was at most -4.2.

Turning to U6C C27G G42A C43A G59U G83A C99A U101C U145G, the “polymerase ribozyme fitness (log ratio)” value is at most -4.2. Take C8G U9C G50C A60U C75G U82C C116U: the “polymerase ribozyme fitness (log ratio)” value was at most -4.2. For the variant U6A C51A C76U C93U C103U, the “polymerase ribozyme fitness (log ratio)” value is at most -4.2.

Turning to U6A C35A U56A C85U A89C C93G C99U G141A U144C, the “polymerase ribozyme fitness (log ratio)” value was at most -4.2. For U6A U56G A60C A73G G84U C85A A107U C114U U148G, the “polymerase ribozyme fitness (log ratio)” value was at most -4.2. Consider C8G A47C C79A G83C, for which the “polymerase ribozyme fitness (log ratio)” value is at most -4.2. On to U7G A28U G71A G83C, for which the “polymerase ribozyme fitness (log ratio)” value is at most -4.2. The figure for C8A G48C C85G C96U A137U G141U is at most -4.2. Next, C8A C27U A29G A49G G58A: at most -4.2; U7A A20U A40C U56A U61A G133A G141U A142C: at most -4.2; U6A U55A A91U U101G U111A: at most -4.2.

With U7A U13G A21U C54U G70A G83A C87A A89C U104G G112A U135A A147C, the “polymerase ribozyme fitness (log ratio)” value is at most -4.2. For the variant C8G G25A A30U G74U C95A C116A G124C U135A G136A A137G, the “polymerase ribozyme fitness (log ratio)” value is at most -4.2.

For U7G C51U G67C G94C U148C, the “polymerase ribozyme fitness (log ratio)” value is at most -4.2. U6G U7A U44G G50U G86A A89U C99U: the “polymerase ribozyme fitness (log ratio)” value was at most -4.2. For U7G A20U A52C G88U C96U, the “polymerase ribozyme fitness (log ratio)” value is at most -4.2. On to C8G U33C A39C G65A C96U C132U U139G, for which the “polymerase ribozyme fitness (log ratio)” value is at most -4.2. As for U6A C54A C87G, the “polymerase ribozyme fitness (log ratio)” value was at most -4.2.

In the case of C8G A16G U53G C57A A91C C95G A113U, the “polymerase ribozyme fitness (log ratio)” value was at most -4.2. Next, U7C C14A C18U A41U G84U C103U G112A: at most -4.2; U6G A16G A21G C32G G58U C75U: at most -4.2. Next, U7A A17U C57A G83A A137G: at most -4.2; C8U A12U A30C A47U U55G C87G C108U G133A G141U: at most -4.2; U6A A26U C54A C93U G128A: at most -4.2. For U6G U7A A20C A49U G65U C108G U144A, the “polymerase ribozyme fitness (log ratio)” value was at most -4.2. With U7C A17G A29G A41C C87G, the “polymerase ribozyme fitness (log ratio)” value was at most -4.2. The figure for U6A G11U G48C C87A C105U U144A is at most -4.2; for U6G U13C U55A G67A U78A A97C A107C A115G U144G U151A it is at most -4.2; for C8G A19G C85G C99A U101G C114U A142G G143U A147C it is at most -4.2.

For the variant C8A C85A A91C G136U C149A, the “polymerase ribozyme fitness (log ratio)” value was at most -4.2. U6G A64U U82A C87A: the “polymerase ribozyme fitness (log ratio)” value was at most -4.2.

U7C A29C C95A A122G: the “polymerase ribozyme fitness (log ratio)” value is at most -4.2. Consider C8G C14U C35A C57U G58C A73U U77G C93U A106G C116G, for which the “polymerase ribozyme fitness (log ratio)” value was at most -4.2. C8A G34C G88A A97C U102C A106C C116G G136U: the “polymerase ribozyme fitness (log ratio)” value is at most -4.2. The figure for U6C C18U G86U A107G is at most -4.2; for U7G C18G U31C A47G G86A A107U it is at most -4.2. As to C5U U33G U45G C79G C85A A97C A110C, the “polymerase ribozyme fitness (log ratio)” value was at most -4.2. U7G A40G A41C A52U C57U U77G A122C G128U G141U: the “polymerase ribozyme fitness (log ratio)” value is at most -4.2. Next, C8A G11A C32A G48U C57U A64G G83U C103A A106U U145G: at most -4.2. For U6C C93G G143U, the “polymerase ribozyme fitness (log ratio)” value was at most -4.2. As for U6A C36U G59C A60C C93G C99G C116A, the “polymerase ribozyme fitness (log ratio)” value is at most -4.2. U6C A20C G46A G50A U53A U102G A113C U134A: the “polymerase ribozyme fitness (log ratio)” value was at most -4.2.

With C8A A49C A66C G81C G83U C99U U101G C108U, the “polymerase ribozyme fitness (log ratio)” value was at most -4.2. For the variant U7C A12G U33G U77G G84A A89U C99U, the “polymerase ribozyme fitness (log ratio)” value is at most -4.2. C8G A23U C72U G88A G100C C131G C132A: the “polymerase ribozyme fitness (log ratio)” value is at most -4.2. With U7G A21C C57U A60C G80A G86C C125U A150C, the “polymerase ribozyme fitness (log ratio)” value is at most -4.2. Take C8A G48U G58C C103G: the “polymerase ribozyme fitness (log ratio)” value was at most -4.2.

As for U6C A21U A23G A64G C75G A91G G100A A120G A147C, the “polymerase ribozyme fitness (log ratio)” value was at most -4.2. As for U7G C8U A89G G100A U134A, the “polymerase ribozyme fitness (log ratio)” value was at most -4.2. For C8A G70A, the “polymerase ribozyme fitness (log ratio)” value was at most -4.2. As to C8G A28C A39C A49C C69G, the “polymerase ribozyme fitness (log ratio)” value is at most -4.2. U6C U53A C76A U90C C95G U104G: the “polymerase ribozyme fitness (log ratio)” value is at most -4.2. Turning to C8G A12C G50U C54U U55C A66U G80U G86A C99U A121C G140C A147G, the “polymerase ribozyme fitness (log ratio)” value is at most -4.2. As for U7A G11A A16G C79A A138C U139A, the “polymerase ribozyme fitness (log ratio)” value was at most -4.2.

With U6A C8G G11U A22G A30C G50C U53A C85G A115U, the “polymerase ribozyme fitness (log ratio)” value is at most -4.2. For U7A A16U G25C C27U U56A G80U G92A U104G A106G, the “polymerase ribozyme fitness (log ratio)” value is at most -4.2. For U6A G34C A66G G86U A107C G141U, the “polymerase ribozyme fitness (log ratio)” value was at most -4.2. Regarding U7A A29C G68A C95A, the “polymerase ribozyme fitness (log ratio)” value was at most -4.2. The figure for U7C A20U A22G G50A G58C C87A is at most -4.2.

With U7C U9G U44G A73U C85G A115G U135G A147U, the “polymerase ribozyme fitness (log ratio)” value is at most -4.2. On to C8A A26U A29C U56A G84U U101G G117A, for which the “polymerase ribozyme fitness (log ratio)” value is at most -4.2.

As for C8A G50A C72U C96G C105U G140C, the “polymerase ribozyme fitness (log ratio)” value is at most -4.2.

As to C8A A24G C63U G84A U90G G141U, the “polymerase ribozyme fitness (log ratio)” value was at most -4.2. Regarding U7A A16C A21U A22U G58C A60G G65U C79G G81A C95A U127C, the “polymerase ribozyme fitness (log ratio)” value was at most -4.2. For the variant U6A C18G A41U C76G C93A C125G U139C C149G, the “polymerase ribozyme fitness (log ratio)” value was at most -4.2.
